Experimental data from PubChem BioAssay (NCI).
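Test compounds were applied to cells in 96-well plates for 48 hours at 5 doses. GI50 marks 50% less growth. TGI: total growth inhibition.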

Tested on: NCI-H322M lung
Experiment: NCI-60 cell line screen, 48 h

Compound | GI50 [µM] | TGI [µM]
Cc1ccc(/C=C/c2n(Cc3ccc4ccccc4c3)c3ccccc3[n+]2Cc2ccc3ccccc3c2)cc1 | 1.29 | 2.55
COc1ccc(C(=O)/C=C/c2cc(F)cc(C(F)(F)F)c2)cc1S(N)(=O)=O | 3.76 | 15.2
O=C(c1ccc(Cl)cc1)c1ccc(OCCCN2CCN(c3ccncc3)CC2)cc1 | 7.05 | 20.3
O=C(/C=C/c1ccccc1)c1nc2ccccc2n1Cc1ccc(F)cc1 | 3.88 | 15.1
O=C(CSc1nc2ccccc2c(=O)n1-c1ccc(Cl)cc1)Nc1ccc(-c2nc3ccccc3[nH]2)cc1 | 3.72 | 15.1
